# The supplement of paper PMC10369915
# The other results are listed elsewhere or left out. Cut-off read from the data, not from the text of the source: active = 3.2 or more and inactive = the rest. The signal is at background level for most entries.
# B1: BEST1_Y227 (peptide)
# chain: GHLYAYDWISI
# B2: BEST1_Y227_D228N (peptide)
# chain: GHLYAYNWISI
# B3: BEST1_Y227_L224P (peptide)
# chain: GHPYAYDWISI
# B4: BEST1_Y227_S231R (peptide)
# chain: GHLYAYDWIRI
# B5: BEST1_Y227_Y227C (peptide)
# chain: GHLYACDWISI
# B6: BEST1_Y227_Y227C_YF (peptide)
# chain: GHLFACDWISI
# B7: BEX1_Y43_A40V (peptide)
# chain: LDVGEYCVPRG
# B8: BICD2_Y538 (peptide)
# chain: ELANLYHHVCM
# B9: BICD2_Y538_C542W (peptide)
# chain: ELANLYHHVWM
# B10: BIN1_Y150 (peptide)
# chain: RKLVDYDSARH
# B11: BIN1_Y150_R154Q (peptide)
# chain: RKLVDYDSAQH
# B12: BIN1_Y157 (peptide)
# chain: SARHHYESLQT
# B13: BMP15_Y235_Y235C (peptide)
# chain: AFLLLCFNDTH
# B14: BMPR1A_Y453 (peptide)
# chain: GIVEEYQLPYY
# B15: BMPR1A_Y453_V450M (peptide)
# chain: GIMEEYQLPYY
# B16: BMPR1A_Y457_M460T (peptide)
# chain: EYQLPYYNTVP
# B17: BMPR1A_Y457_YF (peptide)
# chain: EFQLPYFNMVP
# B18: BMPR1A_Y458_YF (peptide)
# chain: FQLPFYNMVPS
# B19: BMPR1A_Y467 (peptide)
# chain: PSDPSYEDMRE
# Biological target: SHP2 C-SH2 domain E139D
# Experiment: enrichment score (SH2-bound / input frequency) (ratio); bacterial display of known human phosphotyrosine sites (pTyr-Var adds point mutants) read by sequencing; higher = stronger binding; tyrosines were phosphorylated by kinases first
# Conditions: peptide library: pTyr-Var
# 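Note: displayed peptides selected on beads carrying the immobilized SH2 domain, with library peptides lacking any tyrosine serving as negative controls.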
row,Binder,enrichment score
1,B1,inactive: 2.95
2,B2,inactive: 2.18
3,B3,inactive: 1.2
4,B4,inactive: 2.79
5,B5,inactive: 1.14
6,B6,inactive: 1.96
7,B7,inactive: 0.725
8,B8,inactive: 1.23
9,B9,inactive: 1.7
10,B10,inactive: 0.82
11,B11,inactive: 0.546
12,B12,inactive: 1.28
13,B13,inactive: 1.7
14,B14,inactive: 0.987
15,B15,inactive: 1.25
16,B16,inactive: 2.48
17,B17,inactive: 1.82
18,B18,inactive: 1.34
19,B19,inactive: 0.477

# Biological target: SHP2 C-SH2 domain wild-type
# Experiment: as above
# Conditions: peptide library: pTyr-Var
row,Binder,enrichment score
1,B1,inactive: 2.87
2,B2,inactive: 2.17
3,B3,inactive: 1.06
4,B4,inactive: 2.41
5,B5,inactive: 1.23
6,B6,inactive: 1.72
7,B7,inactive: 0.926
8,B8,inactive: 1.75
9,B9,inactive: 1.56
10,B10,inactive: 0.695
11,B11,inactive: 0.55
12,B12,inactive: 1.38
13,B13,inactive: 1.99
14,B14,inactive: 0.955
15,B15,inactive: 1.11
16,B16,inactive: 2.47
17,B17,inactive: 2.01
18,B18,inactive: 1.19
19,B19,inactive: 0.254

# Biological target: SHP2 N-SH2 domain L43F
# Experiment: as above
# Conditions: peptide library: pTyr-Var
row,Binder,enrichment score
1,B1,inactive: 2.92
2,B2,inactive: 1.86
3,B3,inactive: 1.17
4,B4,inactive: 2.6
5,B5,inactive: 1.41
6,B6,inactive: 1.64
7,B7,inactive: 0.823
8,B8,inactive: 1.08
9,B9,inactive: 1.4
10,B10,inactive: 0.606
11,B11,inactive: 0.552
12,B12,inactive: 1.19
13,B13,inactive: 1.64
14,B14,inactive: 0.907
15,B15,inactive: 1.36
16,B16,inactive: 2.15
17,B17,inactive: 1.35
18,B18,inactive: 1.4
19,B19,inactive: 0.433

# Biological target: SHP2 N-SH2 domain T42A
# Experiment: as above
# Conditions: peptide library: pTyr-Var
row,Binder,enrichment score
1,B1,inactive: 2.71
2,B2,inactive: 1.83
3,B3,inactive: 1.89
4,B4,inactive: 2.41
5,B5,inactive: 1.08
6,B6,inactive: 1.51
7,B7,inactive: 0.569
8,B8,inactive: 1.12
9,B9,inactive: 1.35
10,B10,inactive: 0.609
11,B11,inactive: 0.465
12,B12,inactive: 1.42
13,B13,inactive: 1.85
14,B14,inactive: 0.823
15,B15,inactive: 0.864
16,B16,active: 3.36
17,B17,inactive: 1.84
18,B18,inactive: 1.41
19,B19,inactive: 0.293

# Biological target: SHP2 N-SH2 domain T52S
# Experiment: as above
# Conditions: peptide library: pTyr-Var
row,Binder,enrichment score
1,B1,inactive: 2.95
2,B2,inactive: 1.78
3,B3,inactive: 1.12
4,B4,inactive: 2.65
5,B5,inactive: 1.09
6,B6,inactive: 1.36
7,B7,inactive: 0.66
8,B8,inactive: 1.14
9,B9,inactive: 1.36
10,B10,inactive: 0.632
11,B11,inactive: 0.551
12,B12,inactive: 1.31
13,B13,inactive: 1.66
14,B14,inactive: 1.01
15,B15,inactive: 0.936
16,B16,inactive: 2.29
17,B17,inactive: 1.6
18,B18,inactive: 1.61
19,B19,inactive: 0.453

# Biological target: SHP2 N-SH2 domain wild-type
# Experiment: as above
# Conditions: peptide library: pTyr-Var
row,Binder,enrichment score
1,B1,inactive: 3.11
2,B2,inactive: 2.36
3,B3,inactive: 1.12
4,B4,inactive: 2.49
5,B5,inactive: 1.64
6,B6,inactive: 1.59
7,B7,inactive: 0.763
8,B8,inactive: 1.47
9,B9,inactive: 1.48
10,B10,inactive: 0.791
11,B11,inactive: 0.474
12,B12,inactive: 1.21
13,B13,inactive: 2.04
14,B14,inactive: 0.92
15,B15,inactive: 1.12
16,B16,inactive: 2.13
17,B17,inactive: 1.36
18,B18,inactive: 0.96
19,B19,inactive: 0.315
